B1: PhoQ; a variant is named by its letters at X, in order, P23837 (parent)
chain: MKKLLRLFFPLSLRVRFLLATAAVVLVLSLAYGMVALIGYSVSFDKTTFRLLRGESNLFYTLAKWENNKLHVELPENIDKQSPTMTLIYDENGQLLWAQRDVPWLMKMIQPDWLKSNGFHEIEADVNDTSLLLSGDHSIQQQLQEVREDDDDAEMTHSVAVNVYPATSRMPKLTIVVVDTIPVELKSSYMVWSWFIYVLSANLLLVIPLLWVAAWWSLRPIEALAKEVRELEEHNRELLNPATTRELTSLVRNLNRLLKSERERYDKYRTTLTDLTHSLKTPLXXLQXXLRSLRSEKMSVSDAEPVMLEQISRISQQIGYYLHRASMRGGTLLSRELHPVAPLLDNLTSALNKVYQRKGVNISLDISPEISFVGEQNDFVEVMGNVLDNACKYCLEFVEISARQTDEHLYIVVEDDGPGIPLSKREVIFDRGQRVDTLRPGQGVGLAVAREITEQYEGKIVAGESMLGGARMEVIFGRQHSAPKDE

Some of the results follow.

The assay covers variants of B1. Put plainly: enrichment ratio after two sorts for PhoP signalling (ratio (wild type AVST 3.29)); higher = more functional. Particulars: with PhoP (E. coli).
For VKYA, the enrichment ratio is at most 0.25.

For SFDW, the enrichment ratio is at most 0.25.

As for SLAI, the enrichment ratio was 15.7.

Consider KLWQ, for which the enrichment ratio was at most 0.25.

In the case of HASR, the enrichment ratio was at most 0.25.

WWKS: the enrichment ratio was at most 0.25.

As to NAIG, the enrichment ratio is at most 0.25.

For the variant SIMI, the enrichment ratio came out at 17.4.

Regarding LLRN, the enrichment ratio is at most 0.25.

As to VLAA, the enrichment ratio is at most 0.25.

Regarding WKGH, the enrichment ratio was at most 0.25.

For the variant IEHM, the enrichment ratio was at most 0.25.

As for HAKW, the enrichment ratio is at most 0.25.

With KCWY, the enrichment ratio is at most 0.25.

Consider QKCV, for which the enrichment ratio amounted to 2.74.

As for SQEF, the enrichment ratio is at most 0.25.

Consider IDEI, for which the enrichment ratio is at most 0.25.

For the variant ENVS, the enrichment ratio is at most 0.25.

As to HCGF, the enrichment ratio is at most 0.25.

Turning to MFCG, the enrichment ratio was at most 0.25.

For the variant NILG, the enrichment ratio was at most 0.25.

Turning to KMSR, the enrichment ratio was at most 0.25.

Take EKID: the enrichment ratio is at most 0.25.

On to VFHQ, for which the enrichment ratio is at most 0.25.

TTHH: the enrichment ratio is 11.8.

In the case of GDCH, the enrichment ratio was at most 0.25.

Consider DPLP, for which the enrichment ratio was at most 0.25.

In the case of SNDG, the enrichment ratio is at most 0.25.

Regarding FSDR, the enrichment ratio was at most 0.25.

On to HGNE, for which the enrichment ratio was at most 0.25.

LTHD: the enrichment ratio is at most 0.25.

With NAKD, the enrichment ratio is at most 0.25.

Regarding GHHC, the enrichment ratio is at most 0.25.

On to EVLN, for which the enrichment ratio is at most 0.25.

As for FNDW, the enrichment ratio is at most 0.25.

With PYSP, the enrichment ratio is at most 0.25.

For the variant FPMQ, the enrichment ratio is at most 0.25.

With AQYG, the enrichment ratio was at most 0.25.

In the case of SAST, the enrichment ratio worked out at 8.9.

NFGM: the enrichment ratio is at most 0.25.

As to PTFR, the enrichment ratio is at most 0.25.

For the variant FQEI, the enrichment ratio was at most 0.25.

Consider GHRL, for which the enrichment ratio is at most 0.25.

With DVSF, the enrichment ratio was at most 0.25.

Regarding NSLY, the enrichment ratio is at most 0.25.

In the case of PAQE, the enrichment ratio is at most 0.25.

With SMRS, the enrichment ratio is at most 0.25.

Regarding QISC, the enrichment ratio turned out to be 7.57.

For the variant IEGL, the enrichment ratio is at most 0.25.

On to LQLM, for which the enrichment ratio came out at 2.

For KKPV, the enrichment ratio is at most 0.25.

Consider VTLF, for which the enrichment ratio was 10.2.

As to YAPR, the enrichment ratio was at most 0.25.

Consider WQRG, for which the enrichment ratio is at most 0.25.

SYTQ: the enrichment ratio is at most 0.25.

With WCHG, the enrichment ratio is at most 0.25.

Turning to NTNA, the enrichment ratio is at most 0.25.

In the case of TYYA, the enrichment ratio was at most 0.25.

QYYE: the enrichment ratio was at most 0.25.

Regarding TPYH, the enrichment ratio is at most 0.25.

On to WSVT, for which the enrichment ratio was at most 0.25.

In the case of RNEH, the enrichment ratio was at most 0.25.

On to AIRN, for which the enrichment ratio was at most 0.25.

For ATGM, the enrichment ratio was 6.99.

DETK: the enrichment ratio is at most 0.25.

Take DGHA: the enrichment ratio was at most 0.25.

Turning to FDCR, the enrichment ratio stood at 1.65.

For EFVE, the enrichment ratio was at most 0.25.

NYTK: the enrichment ratio was at most 0.25.

SYCL: the enrichment ratio is 0.491.

As for WELD, the enrichment ratio is at most 0.25.

For the variant FSPL, the enrichment ratio is at most 0.25.

With FRFC, the enrichment ratio was at most 0.25.

Consider KLSN, for which the enrichment ratio was at most 0.25.

Regarding DEWD, the enrichment ratio was at most 0.25.

With TWMF, the enrichment ratio was at most 0.25.

Turning to HDYF, the enrichment ratio is at most 0.25.

As to QNGV, the enrichment ratio was determined as 22.1.

Take ERPH: the enrichment ratio is at most 0.25.

As for TKCE, the enrichment ratio was found to be 7.83.

Take GSGR: the enrichment ratio was at most 0.25.

As for FDQM, the enrichment ratio is at most 0.25.

For KELW, the enrichment ratio is at most 0.25.

As to RHTH, the enrichment ratio was at most 0.25.

DTPT: the enrichment ratio was at most 0.25.

On to DDVY, for which the enrichment ratio is at most 0.25.

As to MDTE, the enrichment ratio is at most 0.25.

Take LQVY: the enrichment ratio was at most 0.25.

On to GKFQ, for which the enrichment ratio is at most 0.25.

In the case of DWWV, the enrichment ratio is at most 0.25.

Take QLPC: the enrichment ratio was at most 0.25.

Consider QCPS, for which the enrichment ratio is at most 0.25.

As to QWHQ, the enrichment ratio was at most 0.25.

As for TCTQ, the enrichment ratio worked out at 21.4.

In the case of HSFS, the enrichment ratio was at most 0.25.

For the variant SAIA, the enrichment ratio worked out at 1.81.

For the variant HRDD, the enrichment ratio was at most 0.25.

For QKAL, the enrichment ratio was at most 0.25.

For LLHN, the enrichment ratio was at most 0.25.

For GYSI, the enrichment ratio is at most 0.25.

Regarding RDDQ, the enrichment ratio was at most 0.25.

For the variant FIYP, the enrichment ratio was at most 0.25.

Regarding TDYH, the enrichment ratio was found to be 0.306.

Consider FMTL, for which the enrichment ratio was at most 0.25.

Turning to IACW, the enrichment ratio is at most 0.25.

Turning to EEYH, the enrichment ratio was at most 0.25.

As for AESL, the enrichment ratio was determined as 11.7.

For the variant DNLR, the enrichment ratio was at most 0.25.

Take FHKS: the enrichment ratio is at most 0.25.

For the variant NETR, the enrichment ratio is at most 0.25.

Take VGNL: the enrichment ratio is at most 0.25.

Turning to RERN, the enrichment ratio was at most 0.25.

As to SFTQ, the enrichment ratio was at most 0.25.

Consider KCRN, for which the enrichment ratio was at most 0.25.

Regarding FGAA, the enrichment ratio is at most 0.25.

For the variant RMNV, the enrichment ratio was at most 0.25.

Consider FMSV, for which the enrichment ratio was at most 0.25.

Turning to WEIM, the enrichment ratio was at most 0.25.

In the case of SLLI, the enrichment ratio is 7.62.

Consider NDMS, for which the enrichment ratio was at most 0.25.

As for QFVI, the enrichment ratio is at most 0.25.

For AWQG, the enrichment ratio was at most 0.25.

In the case of YMQN, the enrichment ratio is at most 0.25.

As to KKAF, the enrichment ratio was at most 0.25.

On to LAIT, for which the enrichment ratio is at most 0.25.

As for PYNV, the enrichment ratio is at most 0.25.

With QVRI, the enrichment ratio is at most 0.25.

For the variant YNGR, the enrichment ratio is at most 0.25.

As to HEQG, the enrichment ratio is 1.5.

FHSD: the enrichment ratio is at most 0.25.

As for GCLD, the enrichment ratio is at most 0.25.

Consider VNNY, for which the enrichment ratio was at most 0.25.

Take GDCW: the enrichment ratio was at most 0.25.

Turning to VQTS, the enrichment ratio was at most 0.25.

QLSK: the enrichment ratio was at most 0.25.

Turning to RYAM, the enrichment ratio was determined as 1.26.

As for KIYW, the enrichment ratio is at most 0.25.

Regarding LCHM, the enrichment ratio was at most 0.25.

Turning to MMHR, the enrichment ratio is at most 0.25.

On to SNVT, for which the enrichment ratio was found to be 3.04.

Regarding IYPD, the enrichment ratio was at most 0.25.

Consider NFSS, for which the enrichment ratio is at most 0.25.

On to DDWS, for which the enrichment ratio was at most 0.25.

With DMGI, the enrichment ratio is at most 0.25.

For the variant ACMW, the enrichment ratio is at most 0.25.

Take TWPF: the enrichment ratio is at most 0.25.

Turning to VCAH, the enrichment ratio is at most 0.25.

For GMFT, the enrichment ratio was at most 0.25.

For VVQN, the enrichment ratio was at most 0.25.

Consider MQWG, for which the enrichment ratio was found to be 4.64.

Take DRKI: the enrichment ratio is at most 0.25.

As for QWRH, the enrichment ratio is at most 0.25.

TQCM: the enrichment ratio came out at 33.7.
